Measurements from a collection of fitness landscapes (doi:10.1126/science.1257360).
The list shows a part of the results.

B1: PhoQ; a variant is named by its letters at X, in order, P23837 (parent)
chain: MKKLLRLFFPLSLRVRFLLATAAVVLVLSLAYGMVALIGYSVSFDKTTFRLLRGESNLFYTLAKWENNKLHVELPENIDKQSPTMTLIYDENGQLLWAQRDVPWLMKMIQPDWLKSNGFHEIEADVNDTSLLLSGDHSIQQQLQEVREDDDDAEMTHSVAVNVYPATSRMPKLTIVVVDTIPVELKSSYMVWSWFIYVLSANLLLVIPLLWVAAWWSLRPIEALAKEVRELEEHNRELLNPATTRELTSLVRNLNRLLKSERERYDKYRTTLTDLTHSLKTPLXXLQXXLRSLRSEKMSVSDAEPVMLEQISRISQQIGYYLHRASMRGGTLLSRELHPVAPLLDNLTSALNKVYQRKGVNISLDISPEISFVGEQNDFVEVMGNVLDNACKYCLEFVEISARQTDEHLYIVVEDDGPGIPLSKREVIFDRGQRVDTLRPGQGVGLAVAREITEQYEGKIVAGESMLGGARMEVIFGRQHSAPKDE

Variants of: B1
Experiment: enrichment ratio after two sorts for PhoP signalling (ratio (wild type AVST 3.29)); higher = more functional
Conditions: with PhoP (E. coli)
KRHN was tested, and the enrichment ratio was ≤ 0.25. In the case of NHGY, the enrichment ratio is reported as ≤ 0.25. For ISIL, the enrichment ratio was ≤ 0.25. For EMPR, the enrichment ratio was ≤ 0.25. ETAT was tested, and the enrichment ratio was ≤ 0.25. PARL was tested, and the enrichment ratio was ≤ 0.25. With WATN the enrichment ratio was ≤ 0.25. For MERC, the enrichment ratio was ≤ 0.25. In the case of EFRF, the enrichment ratio is reported as ≤ 0.25. With DHMR the enrichment ratio was ≤ 0.25. For LTVT, the enrichment ratio was ≤ 0.25. GKSV was tested, and the enrichment ratio was ≤ 0.25. In the case of CFSV, the enrichment ratio is reported as ≤ 0.25. In the case of HYTE, the enrichment ratio is reported as ≤ 0.25. AMNQ was tested, and the enrichment ratio was ≤ 0.25. Variant MTGI has an enrichment ratio of 11.7. With FNGH the enrichment ratio was ≤ 0.25. LCDA was tested, and the enrichment ratio was ≤ 0.25. AQST showed an enrichment ratio of 5.3. MFLG was tested, and the enrichment ratio was 0.27. With QAWH the enrichment ratio was 31.4. For WRNG, the enrichment ratio was ≤ 0.25. MHPA was tested, and the enrichment ratio was ≤ 0.25. NWCW was tested, and the enrichment ratio was ≤ 0.25. QVAR was tested, and the enrichment ratio was ≤ 0.25. In the case of HRYT, the enrichment ratio is reported as ≤ 0.25. With PGSF the enrichment ratio was ≤ 0.25. For RAGG, the enrichment ratio was ≤ 0.25. For TGSC, the enrichment ratio was 20.2. ARDQ was tested, and the enrichment ratio was ≤ 0.25. With YKPC the enrichment ratio was ≤ 0.25. With KYLY the enrichment ratio was ≤ 0.25. KIPE was tested, and the enrichment ratio was ≤ 0.25. For EITW, the enrichment ratio was ≤ 0.25. SVTE was tested, and the enrichment ratio was ≤ 0.25. With PKMG the enrichment ratio was ≤ 0.25. With WPRE the enrichment ratio was ≤ 0.25. IPQH was tested, and the enrichment ratio was ≤ 0.25. RCQG was tested, and the enrichment ratio was ≤ 0.25. In the case of YVVH, the enrichment ratio is reported as ≤ 0.25. With NVYK the enrichment ratio was ≤ 0.25. For EHQV, the enrichment ratio was ≤ 0.25. In the case of AKND, the enrichment ratio is reported as ≤ 0.25. In the case of KYYA, the enrichment ratio is reported as ≤ 0.25. In the case of RFHT, the enrichment ratio is reported as ≤ 0.25. RYLQ was tested, and the enrichment ratio was ≤ 0.25. In the case of YQYY, the enrichment ratio is reported as ≤ 0.25. For ISKD, the enrichment ratio was ≤ 0.25. Work on GELI yielded an enrichment ratio of 8.82. In the case of IASV, the enrichment ratio is reported as ≤ 0.25. For RQCF, the enrichment ratio was ≤ 0.25. For WTWV, the enrichment ratio was ≤ 0.25. ADYF was tested, and the enrichment ratio was ≤ 0.25. In the case of KAMY, the enrichment ratio is reported as ≤ 0.25. In the case of KKLE, the enrichment ratio is reported as ≤ 0.25. In the case of GVFN, the enrichment ratio is reported as ≤ 0.25. With PTAI the enrichment ratio was ≤ 0.25. In the case of GGPN, the enrichment ratio is reported as ≤ 0.25. In the case of RIAL, the enrichment ratio is reported as ≤ 0.25. For SRDW, the enrichment ratio was ≤ 0.25. For DFAT, the enrichment ratio was ≤ 0.25. Work on QCGH yielded an enrichment ratio of 24.2. With RTWE the enrichment ratio was ≤ 0.25. For VPCK, the enrichment ratio was ≤ 0.25. With HNII the enrichment ratio was ≤ 0.25. With WDVL the enrichment ratio was ≤ 0.25. NQME was tested, and the enrichment ratio was ≤ 0.25. With LVWV the enrichment ratio was ≤ 0.25. RGAY was tested, and the enrichment ratio was ≤ 0.25. For GHQR, the enrichment ratio was ≤ 0.25. QCVM showed an enrichment ratio of 0.317. In the case of PDLL, the enrichment ratio is reported as ≤ 0.25. With KFAA the enrichment ratio was ≤ 0.25. LNMR was tested, and the enrichment ratio was ≤ 0.25. WPYT was tested, and the enrichment ratio was ≤ 0.25. With IYEV the enrichment ratio was ≤ 0.25. For SPIH, the enrichment ratio was ≤ 0.25. With FAPL the enrichment ratio was ≤ 0.25. With VILF the enrichment ratio was ≤ 0.25. With GGVP the enrichment ratio was ≤ 0.25. For MCHL, the enrichment ratio was 6.12. With ESRE the enrichment ratio was ≤ 0.25. For DRYV, the enrichment ratio was ≤ 0.25. TSFK was tested, and the enrichment ratio was ≤ 0.25. HMFH was tested, and the enrichment ratio was ≤ 0.25. For IYGA, the enrichment ratio was ≤ 0.25. In the case of HKMK, the enrichment ratio is reported as ≤ 0.25. In the case of YTRM, the enrichment ratio is reported as ≤ 0.25. In the case of PRKQ, the enrichment ratio is reported as ≤ 0.25. With VMLQ the enrichment ratio was ≤ 0.25. In the case of LCMR, the enrichment ratio is reported as ≤ 0.25. With RPDF the enrichment ratio was ≤ 0.25. Work on INCL yielded an enrichment ratio of 1.56. For YCSP, the enrichment ratio was ≤ 0.25. TGFR was tested, and the enrichment ratio was ≤ 0.25. In the case of WLHN, the enrichment ratio is reported as ≤ 0.25. In the case of DGGH, the enrichment ratio is reported as ≤ 0.25. In the case of IDEH, the enrichment ratio is reported as ≤ 0.25. With WFQE the enrichment ratio was ≤ 0.25. For KANE, the enrichment ratio was ≤ 0.25. With GSFE the enrichment ratio was ≤ 0.25. For SETD, the enrichment ratio was ≤ 0.25. ETYW was tested, and the enrichment ratio was ≤ 0.25. With IRPW the enrichment ratio was ≤ 0.25. MWFW was tested, and the enrichment ratio was ≤ 0.25. For GKRS, the enrichment ratio was ≤ 0.25. LWLD was tested, and the enrichment ratio was ≤ 0.25. SLSM was tested, and the enrichment ratio was 8.94. With PMLI the enrichment ratio was ≤ 0.25. In the case of EVQT, the enrichment ratio is reported as ≤ 0.25. LVQQ was tested, and the enrichment ratio was ≤ 0.25. MTVL gave an enrichment ratio of 1.12. For DGQW, the enrichment ratio was ≤ 0.25. In the case of GFKW, the enrichment ratio is reported as ≤ 0.25. With DIHS the enrichment ratio was ≤ 0.25. With SMQE the enrichment ratio was ≤ 0.25. HWFS was tested, and the enrichment ratio was ≤ 0.25. In the case of WAYL, the enrichment ratio is reported as ≤ 0.25. SRGE was tested, and the enrichment ratio was ≤ 0.25. LYCC was tested, and the enrichment ratio was ≤ 0.25. MDGN was tested, and the enrichment ratio was ≤ 0.25. With LQLD the enrichment ratio was ≤ 0.25. EEVY was tested, and the enrichment ratio was ≤ 0.25. In the case of GQLQ, the enrichment ratio is reported as 5.21. With HGHQ the enrichment ratio was ≤ 0.25. In the case of HAKI, the enrichment ratio is reported as ≤ 0.25. With EPSN the enrichment ratio was ≤ 0.25. With HRYR the enrichment ratio was ≤ 0.25. With VCMQ the enrichment ratio was ≤ 0.25. VLNN was tested, and the enrichment ratio was ≤ 0.25. For DCVD, the enrichment ratio was ≤ 0.25. With NHCE the enrichment ratio was ≤ 0.25. With LMAY the enrichment ratio was ≤ 0.25. In the case of FPDR, the enrichment ratio is reported as ≤ 0.25. IYAH was tested, and the enrichment ratio was ≤ 0.25. In the case of YFDT, the enrichment ratio is reported as ≤ 0.25. With TCWM the enrichment ratio was ≤ 0.25. ICWY was tested, and the enrichment ratio was ≤ 0.25. In the case of MEWS, the enrichment ratio is reported as ≤ 0.25. In the case of EVAA, the enrichment ratio is reported as ≤ 0.25. LTVY was tested, and the enrichment ratio was ≤ 0.25. VYCA showed an enrichment ratio of 0.41. With YQII the enrichment ratio was ≤ 0.25. With DEVH the enrichment ratio was ≤ 0.25. In the case of EYRI, the enrichment ratio is reported as ≤ 0.25. LETN was tested, and the enrichment ratio was ≤ 0.25. With DHYP the enrichment ratio was ≤ 0.25. GMQR was tested, and the enrichment ratio was ≤ 0.25. Work on FSMV yielded an enrichment ratio of 9.33. With PYEE the enrichment ratio was ≤ 0.25. With GLEF the enrichment ratio was ≤ 0.25. IHMM was tested, and the enrichment ratio was ≤ 0.25. In the case of SGTQ, the enrichment ratio is reported as 17.4.
